In patent publication US20040116336A1, “Peptide derivatives” (priority 2002, published 2004):
For some of these results: Part of at least one peptide drawing is inferred or uncertain, most often the ends. At least one structure is not confirmed: it was looked up by name or label, or the drawing left a doubt. Values belong to the molecule of their own block, whether it stands above or below them. Non-standard residues stand in square brackets, D forms with d. Residues, ends and D or L forms follow the SMILES beside them. pGlu = O=C1CC[C@@H](C(=O)O)N1

Tests used:
[1] = biological target: T1, APJ (Homo sapiens, UniProt P35414); experiment: Inhibitory activity on forskolin-stimulated cAMP production in CHO-A10 clone 6 cells; format: cell-based; settings: inhibition of cAMP production stimulated with 1 μM forskolin, 37° C. 30 minutes
T1 construct: expressed in transfected cells; host or cells: CHO (CHO-A10; clone 6 for the cAMP assay)
T1 sequence (P35414 1-380): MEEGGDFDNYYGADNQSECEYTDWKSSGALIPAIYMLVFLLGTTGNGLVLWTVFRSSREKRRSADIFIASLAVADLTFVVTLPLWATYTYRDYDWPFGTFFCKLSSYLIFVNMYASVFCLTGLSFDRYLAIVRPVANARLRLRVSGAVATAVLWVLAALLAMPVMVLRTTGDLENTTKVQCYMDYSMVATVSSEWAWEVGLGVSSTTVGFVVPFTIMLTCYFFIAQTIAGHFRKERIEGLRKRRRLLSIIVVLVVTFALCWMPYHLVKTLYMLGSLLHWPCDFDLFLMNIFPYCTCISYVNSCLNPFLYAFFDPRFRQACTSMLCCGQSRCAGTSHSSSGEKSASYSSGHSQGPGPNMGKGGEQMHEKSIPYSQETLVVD
Description: Measurement of an Inhibitory Activity on Forskolin-Stimulated cAMP Production
Hanks' balanced salt solution (HBSS) containing 0.2 mM 3-isobutyl-1-methylxanthine (IBMX) and 0.05% bovine serum albumin was prepared as an assay buffer, and each well was washed twice with 500 μl assay buffer and pre-incubated at 37° C. for 30 minutes. Further, each well was washed once with 500 μl assay buffer, and a sample dissolved in the assay buffer containing 1 μM forskolin was added at a volume of 500 μl/well and incubated at 37° C. for 30 minutes. Wells incubated with the assay buffer not containing forskolin were prepared in the same manner in order to determine the basal level of cellular cAMP production, while wells incubated with the assay buffer containing forskolin were also prepared in order to determine the maximum level of cAMP production stimulated with forskolin. After incubation was finished, each well was washed once with 500 μl assay buffer, and 500 μl lysis buffer 1B attached to a cAMP EIA system from Amersham was added to each well, to extract cAMP. According to the protocol of the kit, 100 μl of each extract was used to determine the level of cAMP. For the inhibitory activity of the sample on cAMP production, the difference (inhibited cAMP production) between the maximum level and the level of cAMP in the sample-containing wells was determined, and the inhibitory activity was expressed as percentage relative to the increased level of cAMP production stimulated with forskolin (that is, the difference between the maximum level and basal level), and from this dose-reaction curve, the EC50 was determined.

[2] = biological target: T1, APJ; experiment: Receptor binding assay-1 (125I-labeled compound in Reference Example 1, CHO-A10 membrane fraction); settings: 125I-labeled compound in Reference Example 1 at 100 pM, room temperature […]
Description: (§1) This product was mixed with an equal volume of an assay buffer (50 mM Tris-HCl/pH 7.5, 5 mM EDTA, 0.5 mM PMSF, 20 μg/ml leupeptin, 0.1 μg/ml pepstatin A, 4 μg/ml E-64 (Peptide Research Laboratory, Co.), 0.1% bovine serum albumin) and stored at −30° C. before use.
(§2) CHO-A10 cells were cultured, recovered with PBS containing 5 mM EDTA from a culture vessel, and suspended in the above-mentioned assay buffer not containing bovine serum albumin. The cells were homogenized 3 times at 12,000 rpm for 15 seconds by a Polytron homogenizer (manufactured by Kinematica Inc.) and then centrifuged (1000×g, 4° C., 10 minutes), and the supernatant was recovered. The precipitates were subjected again to the same procedure as above, and the respective supernatants were combined and centrifuged at 100,000×g, 4° C. for 1 hour, to recover precipitates (membrane fraction). The membrane fraction was suspended again in a small amount of the buffer, homogenized with a Teflon homogenizer and stored at −80° C. before use.
Binding assay was carried out under the following conditions. […] After the filter was sufficiently dried, Microcinti 0 (Packard) was added thereto, and using Top Count (Packard), the amount of the labeled material captured together with the membrane fraction on the filter was measured.

[3] = biological target: T1, APJ; experiment: Receptor binding assay-2 (compound in Reference Example 2 used); settings: compound in Reference Example 2 used as ligand
Description: as §1, §2
Binding assay was carried out under the following conditions. […] Measurement of non-specific binding was carried out using a well containing 1 μM unlabeled compound in place of the test sample. After the incubation was finished, a cell harvester (Packard) adapted to 96 wells and a filter unit (GF/C, Packard) were used for separation thereby capturing the membrane fraction on the filter. After the filter was sufficiently dried, Microcinti 0 (Packard) was added thereto, and using Top Count (Packard), the amount of the labeled material captured together with the membrane fraction on the filter was measured.

SMILES: CC(C)C[C@H](NC(=O)[C@H](CCCNC(=N)N)NC(=O)[C@@H]1CCCN1C(=O)[C@H](CCCNC(=N)N)NC(=O)[C@@H]1CCC(=O)N1)C(=O)N[C@@H](CO)C(=O)N[C@@H](Cc1c[nH]cn1)C(=O)N[C@@H](CCCCN)C(=O)NCC(=O)N1CCC[C@H]1C(=O)N[C@@H](CC1CCCCC1)C(=O)N1CCC[C@H]1C(=O)N[C@@H](Cc1ccccc1)C(=O)O [Compound in Ex. 9]
- EC50 [1]: 0.35 nM
- IC50 [2]: 13 nM
- IC50 [3]: 0.16 nM

SMILES: CSCC[C@H](NC(=O)[C@@H]1CCCN1C(=O)CNC(=O)[C@H](CCCCN)NC(=O)[C@H](CCCNC(=N)N)NC(=O)[C@H](CO)NC(=O)[C@H](CC(C)C)NC(=O)[C@H](CCCNC(=N)N)NC(=O)[C@@H]1CCCN1C(=O)[C@H](CCCNC(=N)N)NC(=O)[C@@H]1CCC(=O)N1)C(=O)N1CCC[C@H]1C(=O)N[C@@H](Cc1ccccc1)C(=O)O [Compound in Ex. 30] ([pGlu]RPRLSRKGPMPF-OH)
- EC50 [1]: 0.081 nM
- IC50 [3]: 0.23 nM

SMILES: CSCC[C@H](NC(=O)[C@@H]1CCCN1C(=O)CNC(=O)[C@H](CCCNC(=N)N)NC(=O)[C@H](Cc1c[nH]cn1)NC(=O)[C@H](CO)NC(=O)[C@H](CC(C)C)NC(=O)[C@H](CCCNC(=N)N)NC(=O)[C@@H]1CCCN1C(=O)[C@H](CCCNC(=N)N)NC(=O)[C@@H]1CCC(=O)N1)C(=O)N1CCC[C@H]1C(=O)N[C@@H](Cc1ccccc1)C(=O)O [Compound in Ex. 34]
- EC50 [1]: 0.2 nM
- IC50 [3]: 0.4 nM

SMILES: CSCC[C@H](NC(=O)[C@@H]1CCCN1C(=O)CNC(=O)[C@H](CCCCN)NC(=O)[C@H](Cc1c[nH]cn1)NC(=O)[C@H](CO)NC(=O)[C@H](CC(C)C)NC(=O)[C@H](CCCNC(=N)N)NC(=O)[C@@H]1CCCN1C(=O)[C@H](CCCNC(=N)N)NC(=O)[C@@H]1CCC(=O)N1)C(=O)N[C@@H](Cc1ccc(Cl)cc1)C(=O)O [Compound in Ex. 35]
- EC50 [1]: 0.43 nM
- IC50 [3]: 0.48 nM

SMILES: CSCC[C@H](NC(=O)[C@@H]1CCCN1C(=O)CNC(=O)[C@H](CCCCN)NC(=O)[C@H](Cc1c[nH]cn1)NC(=O)[C@H](CO)NC(=O)[C@H](CC(C)C)NC(=O)[C@H](CCCNC(=N)N)NC(=O)[C@@H]1CCCN1C(=O)[C@H](CCCNC(=N)N)NC(=O)[C@@H]1CCC(=O)N1)C(=O)N1CCC[C@H]1C(=O)N[C@@H](Cc1ccc2ccccc2c1)C(=O)O [Compound in Ex. 39]
- EC50 [1]: 0.4 nM
- IC50 [3]: 0.6 nM

SMILES: CSCC[C@H](NC(=O)[C@@H]1CCCN1C(=O)CNC(=O)[C@H](CCCNC(=N)N)NC(=O)[C@H](CCCNC(=N)N)NC(=O)[C@H](CO)NC(=O)[C@H](CC(C)C)NC(=O)[C@H](CCCNC(=N)N)NC(=O)[C@@H]1CCCN1C(=O)[C@H](CCCNC(=N)N)NC(=O)[C@@H]1CCC(=O)N1)C(=O)N1CCC[C@H]1C(=O)N[C@@H](Cc1ccccc1)C(=O)O [Compound in Ex. 41] ([pGlu]RPRLSRRGPMPF-OH)
- EC50 [1]: 0.069 nM
- IC50 [3]: 0.73 nM

Further lines, results first:

- EC50 [1]: 0.24 nM
- IC50 [3]: 0.95 nM
SMILES: CSCC[C@H](NC(=O)[C@@H]1CCCN1C(=O)CNC(=O)[C@H](CCCCN)NC(=O)[C@H](Cc1ccccc1)NC(=O)[C@H](CO)NC(=O)[C@H](CC(C)C)NC(=O)[C@H](CCCNC(=N)N)NC(=O)[C@@H]1CCCN1C(=O)[C@H](CCCNC(=N)N)NC(=O)[C@@H]1CCC(=O)N1)C(=O)N1CCC[C@H]1C(=O)N[C@@H](Cc1ccccc1)C(=O)O [Compound in Ex. 43]

- EC50 [1]: 0.22 nM
- IC50 [3]: 0.99 nM
SMILES: CSCC[C@H](NC(=O)[C@@H]1CCCN1C(=O)CNC(=O)[C@H](CCCCN)NC(=O)[C@H](Cc1c[nH]cn1)NC(=O)[C@H](Cc1ccccc1)NC(=O)[C@H](CC(C)C)NC(=O)[C@H](CCCNC(=N)N)NC(=O)[C@@H]1CCCN1C(=O)[C@H](CCCNC(=N)N)NC(=O)[C@@H]1CCC(=O)N1)C(=O)N1CCC[C@H]1C(=O)N[C@@H](Cc1ccccc1)C(=O)O [Compound in Ex. 44]

- EC50 [1]: 0.3 nM
- IC50 [3]: 1.3 nM
SMILES: CSCC[C@H](NC(=O)[C@@H]1CCCN1C(=O)CNC(=O)[C@H](CCCCN)NC(=O)[C@H](Cc1c[nH]cn1)NC(=O)[C@H](CO)NC(=O)[C@H](CC(C)C)NC(=O)[C@H](CCCNC(=N)N)NC(=O)[C@@H]1CCCN1C(=O)[C@H](CCCNC(=N)N)NC(=O)[C@@H]1CCC(=O)N1)C(=O)N[C@@H](CC1CCCCC1)C(=O)O [Compound in Ex. 45]

- EC50 [1]: 0.52 nM
- IC50 [3]: 1.4 nM
SMILES: CSCC[C@H](NC(=O)[C@@H]1CCCN1C(=O)CNC(=O)[C@H](CCCCN)NC(=O)[C@H](Cc1c[nH]cn1)NC(=O)[C@H](CO)NC(=O)[C@H](CC(C)C)NC(=O)[C@H](CCCNC(=N)N)NC(=O)[C@@H]1CCCN1C(=O)[C@H](CCCNC(=N)N)NC(=O)[C@@H]1CCC(=O)N1)C(=O)N[C@@H](Cc1ccc2ccccc2c1)C(=O)O [Compound in Ex. 46]

- EC50 [1]: 0.3 nM
- IC50 [3]: 2.6 nM
SMILES: CSCC[C@H](NC(=O)[C@@H]1CCCN1C(=O)CNC(=O)[C@H](Cc1ccccc1)NC(=O)[C@H](Cc1c[nH]cn1)NC(=O)[C@H](CO)NC(=O)[C@H](CC(C)C)NC(=O)[C@H](CCCNC(=N)N)NC(=O)[C@@H]1CCCN1C(=O)[C@H](CCCNC(=N)N)NC(=O)[C@@H]1CCC(=O)N1)C(=O)N1CCC[C@H]1C(=O)N[C@@H](Cc1ccccc1)C(=O)O [Compound in Ex. 48] ([pGlu]RPRLSHFGPMPF-OH)

- EC50 [1]: 0.16 nM
- IC50 [3]: 3.6 nM
SMILES: CSCC[C@H](NC(=O)[C@@H]1CCCN1C(=O)CNC(=O)[C@H](CC(C)C)NC(=O)[C@H](Cc1c[nH]cn1)NC(=O)[C@H](CO)NC(=O)[C@H](CC(C)C)NC(=O)[C@H](CCCNC(=N)N)NC(=O)[C@@H]1CCCN1C(=O)[C@H](CCCNC(=N)N)NC(=O)[C@@H]1CCC(=O)N1)C(=O)N1CCC[C@H]1C(=O)N[C@@H](Cc1ccccc1)C(=O)O [Compound in Ex. 50] ([pGlu]RPRLSHLGPMPF-OH)
